This is an account of results in the supplement of paper PMC10338343.

± gives the standard deviation. Over roughly 3,700 sequences, “pre-steady-state target cleavage rate” has its median near 0.02; the highest 2% begin near 0.23. The entries are a selection whose mix differs from that of the whole data set. A value given as a limit tells only on which side of the number the result lay.

The subject of this test is MILI (PIWIL2) piRISC loaded with Kctd7 piRNA (26 nt). Put plainly: pre-steady-state target cleavage rate (min^-1); MIWI and MILI are mouse PIWI proteins and EfPiwi is from a freshwater sponge; tags in brackets are library labels; higher = faster piRNA-guided slicing of the target. The following applies: guide: Kctd7 piRNA 5'p-UGUUAAUCUCUCAGAGAAGGUGACAG; auxiliary factor: 500 nM mouse GTSF1. A digest of the protocol:
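The method was Cleave-'n-Seq, in which uncleaved targets from a transcribed, DNA-blocked target RNA library were sequenced after exposure to active affinity-purified piRISC carrying one synthetic guide, with or without GTSF1 partner protein. Reactions contained 0.1 nM library, 1 nM piRISC and, where present, 500 nM GTSF1 in HEPES–potassium acetate buffer at 33 °C for 0–8 or 0–960 min. Reads were normalised to depth and to weakly complementary targets, three trials were pooled, and k3 was capped at 0.0001 min^-1. The pre-steady-state cleavage rate came from a burst-and-steady-state fit.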
As for UAGUGACAGACCUUCUUUGAGAGAUUAACA, the “pre-steady-state target cleavage rate” value stood at 0.0976 ± 0.011.

As to UAGUGACAGUGCUCCUCUGAGAGAUUAACA, the “pre-steady-state target cleavage rate” value turned out to be 0.0464 ± 0.0072.

In the case of UAGUGACAGACCUUGUCAGAGAGAUUAACA, the “pre-steady-state target cleavage rate” value was 0.0138 ± 0.0059.

On to UAGUGACUCACCUUGUCUGACAGAUUAACA, for which the “pre-steady-state target cleavage rate” value came to 0.0415 ± 0.0082.

Take UAGUGUGUCACCUUCAUCUGAGAGAUUAACA: the “pre-steady-state target cleavage rate” value was 0.0928 ± 0.023.

Take UAGUGUGUCACCUUCUCUGUGAGAUUAAGA: the “pre-steady-state target cleavage rate” value is 0.0576 ± 0.012.

UAGUCUCUCACCUUCUCUCAGAGAUUAACA: the “pre-steady-state target cleavage rate” value worked out at 0.043 ± 0.0055.

UAGUGACAGUCCUACUGUGAGAGAUUAACA: the “pre-steady-state target cleavage rate” value amounted to 0.0112 ± 0.0017.

In the case of UAGUGACACACCUUCUCUGUGAGAUUAUGA, the “pre-steady-state target cleavage rate” value came out at 0.0111 ± 0.0041.

With UAGUGACACACCAUCUCUGAGAGAUUAUCA, the “pre-steady-state target cleavage rate” value was 0.0696 ± 0.017.

Take UAGUCUGUCACCUUCUCUGAGAGAUUAAGCA: the “pre-steady-state target cleavage rate” value amounted to 0.153 ± 0.022.

For the sequence UAGUGUGGCACCUUCUCUGAGAGAUUAACA, the “pre-steady-state target cleavage rate” value amounted to 0.147 ± 0.041.

Turning to UAGUCUGUCACCUUCACUGUGAGAUUAACA, the “pre-steady-state target cleavage rate” value stood at 0.0435 ± 0.0046.

For the sequence UAGUGUGUCACCUUCUCUAGAGAGAUUAACA, the “pre-steady-state target cleavage rate” value was 0.0225 ± 0.0093.

Take UAGUGACACACCUCUCUGAGAGAUUAACA: the “pre-steady-state target cleavage rate” value worked out at 0.0352 ± 0.0093.

For UAGUGUCAGACCUUCUCUGAGAGAUUAACA, the “pre-steady-state target cleavage rate” value came to 0.108 ± 0.012.

For UAGUGACAGUCCUCUCUCUGAGAGAUUAACA, the “pre-steady-state target cleavage rate” value came out at 0.0422 ± 0.0075.

On to UAGUCUGUCAGGAUCUCUGAGAGAUAUUGA, for which the “pre-steady-state target cleavage rate” value was under 0.0001.

For the sequence UAGUGACACACCUUCUCUAAGAGAUUAACA, the “pre-steady-state target cleavage rate” value was 0.118 ± 0.0097.

For the sequence UAGUGAGUCACCAACUCUGAGAGAUUAACA, the “pre-steady-state target cleavage rate” value was found to be 0.161 ± 0.01.

As to UAGUCUGUCACCUUGUGUGAGAGAUUAACA, the “pre-steady-state target cleavage rate” value worked out at 0.0457 ± 0.0061.

Turning to UAGUCUGUCACCUUCUCAGAGAGAUUAUGA, the “pre-steady-state target cleavage rate” value was determined as 0.00893 ± 0.006.

Turning to UAGUGUGUCAGCUACUCUGAGAGAUUAACA, the “pre-steady-state target cleavage rate” value was found to be 0.118 ± 0.011.

As for UAGUGUGUCACCUUCUCUGAGAGUUUUUGA, the “pre-steady-state target cleavage rate” value was 0.178 ± 0.054.

UAGUGACAGUGCUUCUCUGAGAAGAUUAACA: the “pre-steady-state target cleavage rate” value turned out to be 0.00639 ± 0.0034.

Regarding UAGUGAGUCAACUUCUCUGAGAGAUUAACA, the “pre-steady-state target cleavage rate” value amounted to 0.199 ± 0.015.

As to UAGUGACUCAGCUUCUCUGAGACAUUAACA, the “pre-steady-state target cleavage rate” value was 0.00915 ± 0.0024.

As to UAGUGACAGACCAUCUCUGAGAGAUUUACA, the “pre-steady-state target cleavage rate” value amounted to 0.0177 ± 0.0054.

On to UAGUGAGUCACCUUCUCUGAGAGUUAACA, for which the “pre-steady-state target cleavage rate” value turned out to be 0.253 ± 0.077.

With UAGUGACAGACCUUCUCUGAGAGCAUUAACA, the “pre-steady-state target cleavage rate” value stood at 0.105 ± 0.018.

Take UAGUCUGUGACCUUCACUGAGAGAUUAACA: the “pre-steady-state target cleavage rate” value worked out at 0.116 ± 0.0078.

As to UAGUGUGUCACACUUCUCUGAGAGAUUAACA, the “pre-steady-state target cleavage rate” value is 0.0759 ± 0.0091.

Regarding UAGUGUGUCACCUUCUCUGAGAGAUUAAAA, the “pre-steady-state target cleavage rate” value was 0.108 ± 0.022.

With UAGUCUGUGACCAUCUCUGAGAGAUUAACA, the “pre-steady-state target cleavage rate” value is 0.111 ± 0.0064.

UAGUCACUCACCUUCUCUGAGAGAUUAAGA: the “pre-steady-state target cleavage rate” value is 0.0614 ± 0.019.

Consider UAGUCUGACACCUUCUCUGACAGAUUAACA, for which the “pre-steady-state target cleavage rate” value came to 0.0296 ± 0.0049.

Take UAGUCUGUCAGCUUCUCUCAGAGAUUAACA: the “pre-steady-state target cleavage rate” value was 0.0457 ± 0.0055.

As to UAGUGACAGUGGAACUGUGAGAGUUUAACA, the “pre-steady-state target cleavage rate” value was under 0.0001.

With UAGUGUGUCUCCUUCUCUGAGAGUUUAACA, the “pre-steady-state target cleavage rate” value was found to be 0.0778 ± 0.018.

UAGUGAGUCACCUUCUCUGAGAGUUUAUGA: the “pre-steady-state target cleavage rate” value worked out at 0.275 ± 0.092.
